About 6,400 (1.6%) of roughly 410,000 compounds were called active. The shares of active, inactive and inconclusive entries below differ from those in the screen. Calls follow the shape of the dose curve; as a rule, active = well fitted inhibition curve with a large enough effect; inconclusive = small, poorly fitted or top-dose-only effect; inactive = no such curve, though single readings can be large or run the other way. Where the call is inconclusive, the potency comes from a doubtful curve fit.
molecular target: Glucagon-like peptide 1 receptor (Homo sapiens) (UniProt P43220); experiment: qHTS of GLP-1 Receptor Inverse Agonists (Inhibition Mode); conditions: HEK293 GLP-1R CRE-luciferase, luminescence, 24 h, GLP-1R form is constitutively active; series mostly up to 38.3 µM; also: nearly all actives have a fitted effect of over 55% in size
Procedure, shortened: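 Readout was luciferase luminescence, measured 12 min after detection reagent at room temperature. Beforehand, GLP-1R reporter HEK293 cells had sat 12 h, then received compounds for 24 hr at 37 deg C.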
Potency is read from the fitted curve at half-maximal effect; tags tell the direction and shape of the fitted curve.

UniProt P43220, sequence (P43220 whole entry, looked up): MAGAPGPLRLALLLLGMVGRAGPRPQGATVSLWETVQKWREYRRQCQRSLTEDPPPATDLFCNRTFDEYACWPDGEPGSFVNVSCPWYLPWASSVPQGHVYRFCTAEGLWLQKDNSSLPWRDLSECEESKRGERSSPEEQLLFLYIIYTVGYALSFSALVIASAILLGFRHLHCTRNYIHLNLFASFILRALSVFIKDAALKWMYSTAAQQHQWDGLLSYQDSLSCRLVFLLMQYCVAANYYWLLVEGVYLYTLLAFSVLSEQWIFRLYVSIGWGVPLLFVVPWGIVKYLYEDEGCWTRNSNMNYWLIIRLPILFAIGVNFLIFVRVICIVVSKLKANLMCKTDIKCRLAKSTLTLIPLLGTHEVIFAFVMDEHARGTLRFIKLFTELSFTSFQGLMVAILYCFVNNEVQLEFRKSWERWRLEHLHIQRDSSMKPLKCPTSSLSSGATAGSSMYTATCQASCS

Potency, inconclusive:
CN(C)c1ccc(/C=C(\C#N)c2ccccn2)cc1 6.31 µM [inhibitor, partial curve]
C=CCN1CC(=O)N2C(c3ccccc3)c3[nH]c4ccccc4c3C[C@H]2C1=O (stereo partly drawn) 11.2 µM [inhibitor, partial curve, poor fit]
O=C(NCCc1ccccc1)c1ccc2c(c1)OCCO2 0.891 µM [inhibitor, full curve, poor fit]
Cc1ccc(C(=O)NCC(c2ccco2)N2CCc3ccccc3C2)cc1 (stereo not drawn) 10 µM [inhibitor, partial curve, poor fit]
COc1ccc(NC(=O)N(Cc2cc3ccc(OC)cc3[nH]c2=O)CC2CCCO2)cc1 (stereo not drawn) 3.55 µM [inhibitor, partial curve, poor fit]
CCOC(=O)C1CCN(C(=O)COC(=O)c2cc(-c3cccs3)nn2-c2ccccc2)CC1 12.6 µM [inhibitor, partial curve, poor fit]
Cc1cc(C)cc(N(CC(=O)Nc2ccccc2)C2=NC3CS(=O)(=O)CC3S2)c1 (stereo not drawn) 28.2 µM [inhibitor, single point]
O=S(=O)(Nc1cc(C(F)(F)F)ccc1N1CCOCC1)c1ccc2ccccc2c1 8.91 µM [inhibitor, partial curve, poor fit]
CC(C)(C)OC(=O)NCCCCCNC(=O)c1[nH]cnc1C(=O)Nc1ccccc1 14.1 µM [inhibitor, single point]
CC(Oc1ccccc1)C(=O)N1CCN(c2ccc(N3CCCCC3)nn2)CC1 (stereo not drawn) 0.447 µM [inhibitor, full curve, poor fit]
COc1ccc(/C(N)=N/OC(=O)C2CCCCC2)cc1OC 28.2 µM [inhibitor, single point]
CCC(=O)N(Cc1cc2ccc(C)cc2n2nnnc12)C1CCCCC1 28.2 µM [inhibitor, single point]
CCC(C(=O)NC1CCCC1)n1c(-c2cc3ccccc3[nH]2)nc2ccccc21 (stereo not drawn) 10 µM [inhibitor, partial curve, poor fit]
Cc1ccccc1CC1(CO)CCCN(Cc2ccc3c(c2)OCCO3)C1 (stereo not drawn) 8.91 µM [inhibitor, partial curve, poor fit]
O=C(NCc1ccccc1)c1cccc2c(-c3ccc(F)c(F)c3)coc12 28.2 µM [inhibitor, single point]
CCN1C(=O)[C@H]2[C@@H](c3ccc(-c4ccc(OC)cc4)c(OC)c3)N3CCCC[C@@]3(C(=O)OC)[C@H]2C1=O 10 µM [inhibitor, partial curve, poor fit]
O=C(Nc1ccccc1)Nc1n[nH]c2nnc(-c3ccccc3)c(-c3ccccc3)c12 15.8 µM [inhibitor, single point]
Clc1ccc(CSc2nncn2-c2ccc3c(c2)OCCO3)cc1 4.47 µM [inhibitor, partial curve]
COc1ccc(NC(=O)CN(C)C(=O)CCSc2ccc(F)cc2)cc1 28.2 µM [inhibitor, single point]
CCS(=O)(=O)N1Cc2ccccc2CC1C(=O)Nc1nc2c(C)cccc2s1 (stereo not drawn) 28.2 µM [inhibitor, single point]
CCOc1ccc2nc(NC(=O)C3CSC4(C)CCC(=O)N34)sc2c1 (stereo not drawn) 11.2 µM [inhibitor, partial curve, poor fit]
O=C(CS(=O)(=O)c1nc(-c2ccc(Cl)cc2)cn1-c1ccccc1)Nc1ccc(F)cc1F 22.4 µM [inhibitor, single point]
CCOC(=O)c1ccc(NC(=O)NCc2ccccc2OC)cc1 8.91 µM [inhibitor, partial curve, poor fit]
CCN1C(=O)[C@H]2[C@@H](c3ccc(C(F)(F)F)cc3)N[C@]3(CCCN(Cc4ccc(C(F)(F)F)cc4)C3=O)[C@H]2C1=O 15.8 µM [inhibitor, partial curve, poor fit]
CCNS(=O)(=O)c1ccc(NC(=S)N2CCc3ccccc32)cc1 10 µM [inhibitor, partial curve]
COc1ccc(/C=C/C(=O)c2ccc(NS(=O)(=O)c3ccc(C)cc3)cc2)cc1O 31.6 µM [inhibitor, partial curve, poor fit]
CN1CCc2c(OCC(=O)N3N=C(c4cccs4)CC3c3ccc(F)cc3)cccc2C1=O (stereo not drawn) 10 µM [inhibitor, partial curve, poor fit]
Clc1ccc(-c2nc3ccc(Cl)cn3c2Cc2ccccc2)cc1 11.2 µM [inhibitor, partial curve, poor fit]
COc1cc(/C=C2\SC(=S)N(CCC(=O)Nc3ccccc3O)C2=O)cc(OC)c1OC 7.94 µM [inhibitor, partial curve, poor fit]
COc1ccc(F)cc1-c1cc(C(=O)Nc2ccc(C)c(NS(C)(=O)=O)c2)[nH]n1 10 µM [inhibitor, single point]
Cc1ccc(-c2cnc(C(O)c3ccc(Cl)cc3C)[nH]2)cc1 (stereo not drawn) 28.2 µM [inhibitor, single point]
COc1ccc(S(=O)(=O)N2CCCc3ccccc32)cc1OC 28.2 µM [inhibitor, single point]
CCCCC(=O)NC(c1ccccc1Cl)c1ccc2cccnc2c1O (stereo not drawn) 3.55 µM [inhibitor, full curve, poor fit]
C/C(=N\NC(=O)CNC(=O)C1COc2ccccc2O1)c1ccco1 (stereo not drawn) 28.2 µM [inhibitor, single point]
O=C(CCSCc1ccccc1Cl)N1CCN(c2ccc(F)cc2)CC1 20 µM [inhibitor, single point]
Cc1ccccc1-c1nc(CS(=O)(=O)CC(=O)N2CCc3ccccc3C2)c(C)o1 7.94 µM [inhibitor, single point]
Cc1cccc(N(C)S(=O)(=O)c2c[nH]c3ccc([N+](=O)[O-])cc23)c1 28.2 µM [inhibitor, partial curve, poor fit]
CC(C)(C)c1csc(NC(=O)CCS(=O)(=O)c2ccc(F)cc2)n1 10 µM [inhibitor, single point]
O=C(CCc1ccc(Oc2cc([N+](=O)[O-])cc([N+](=O)[O-])c2)cc1)Nc1cccc(Cl)c1 10 µM [inhibitor, partial curve, poor fit]
Cc1ccc2nc(NC(=O)CN3C(=O)NC4(CCCC4)C3=O)sc2c1 11.2 µM [inhibitor, partial curve, poor fit]
c1c2c(cc3sc(N4CCCCC4)nc13)OCO2 8.91 µM [inhibitor, partial curve, poor fit]
CC1CCN(Cc2c(C(=O)N/N=C/c3cccc(C(F)(F)F)c3)nnn2-c2nonc2N)CC1 7.08 µM [inhibitor, partial curve, poor fit]
COCc1cccc(-c2csc(C(O)c3ccc(F)c(OC)c3)n2)c1 (stereo not drawn) 28.2 µM [inhibitor, single point]
COc1cccc(N/C(SCc2cccc([N+](=O)[O-])c2)=C(/C#N)C(=O)NCc2cccs2)c1 28.2 µM [inhibitor, single point]
COc1ccc(-c2csc(C(O)(c3ccccc3)C(F)(F)F)n2)cc1 (stereo not drawn) 28.2 µM [inhibitor, single point]

Potency, inactive:
COc1cc(C2C(C#N)=C(N)N(N(C)C)C3=C2C(=O)CC(C)(C)C3)cc(OC)c1OC (stereo not drawn)
CCOc1ccc(CNC(=O)C2CCN(C(=O)c3sccc3-n3cccc3)CC2)cc1
COc1ccc(S(=O)(=O)N2CCCCCC2)cc1C(=O)N(C)CC(=O)Nc1ccccc1C(F)(F)F
CCOC(=O)C1=C(c2ccccc2)N=c2sc(=Cc3cc(OC)c(OC)c(OC)c3)c(=O)n2C1c1cccs1 (stereo not drawn)
COc1ccc(-c2c(C#N)c(N)nc3c2c(=O)n(C)c(=O)n3C)cc1
Cc1ccc(C)c(N/N=C2\CCCNC2=O)c1
Oc1cc(CNCc2ccccc2)c(O)cc1CNCc1ccccc1
CCN(CC)c1ccc(/C=C2\C(=N)N3N=C(CC(=O)N4CCOCC4)SC3=NC2=O)cc1
CCC(C)Sc1ccc(-c2nc3ccccn3c2NCc2ccccc2)cc1OC (stereo not drawn)
CC(Oc1ccccc1)C(=O)N1CCN(Cc2cc(=O)n3nc(-c4ccccc4Cl)sc3n2)CC1 (stereo not drawn)
CC(C)CN1CC(C)C(=O)NC1=S (stereo not drawn)
CCOc1ccc(CCNC(=O)C2CCC(CNS(=O)(=O)c3ccc(Cl)cc3)CC2)cc1OCC (stereo not drawn)
COCCCNC(=O)COc1ccc(Br)cc1Cl
COc1cccc(-n2cc(C(=O)Nc3cc(C)c(Cl)cc3OC)c3ccccc3c2=O)c1
CC(Cl)C(=O)c1c(N)n(C)c(=O)n(C)c1=O (stereo not drawn)
CCC(=O)N1CCN(c2ccc(NC(=S)NC(=O)c3cc4ccccc4o3)cc2)CC1

Potency, active:
Cn1c(=O)n(CCc2ccccc2)c(=O)c2c1nc1n2CCCN1CCc1ccccc1 2.24 µM
CC1=CC(C)(C)N2C(=O)C3(N=C(N)NC(Nc4ccccc4)=N3)c3cc(C)cc1c32 (stereo not drawn) 3.55 µM
